Target: T1, TACI (human primary naive B cells) (human (endogenous in primary B cells), UniProt O14836 1-293)
T1 sequence: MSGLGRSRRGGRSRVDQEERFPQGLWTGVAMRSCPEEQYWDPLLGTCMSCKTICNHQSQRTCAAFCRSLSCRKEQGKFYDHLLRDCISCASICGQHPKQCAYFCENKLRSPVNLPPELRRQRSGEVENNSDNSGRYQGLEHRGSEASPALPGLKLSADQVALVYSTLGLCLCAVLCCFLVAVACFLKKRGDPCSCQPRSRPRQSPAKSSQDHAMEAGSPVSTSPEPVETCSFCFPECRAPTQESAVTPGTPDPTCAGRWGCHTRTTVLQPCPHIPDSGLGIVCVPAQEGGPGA
Test: co-IP

fold increase of association after APRIL (15 min) against unstimulated cells: 2 fold
B1: MyD88 (human primary naive B cells) (natural protein)
chain: MAAGGPGAGSAAPVSSTSSLPLAALNMRVRRRLSLFLNVRTQVAADWTALAEEMDFEYLEIRQLETQADPTGRLLDAWQGRPGASVGRLLELLTKLGRDDVLLELGPSIEEDCQKYILKQQQEEAEKPLQVAAVDSSVPRTAELAGITTLDDPLGHMPERFDAFICYCPSDIQFVQEMIRQLEQTNYRLKLCVSDRDVLPGTCVWSIASELIEKRCRRMVVVVSDDYLQSKECDFQTKFALSLSPGAHQKRLIPIKYKAMKKEFPSILRFITVCDYTNPCTKSWFWTRLAKALSLP
